Assay results as given in patent EP4450093A1 (Synaffix B.V., dated 2024).
Read-outs that look alike come from different tables or passages of the source.

How the values were obtained:
[1] = target: T1, IL-15 receptor on the IL-15 cells of the IL-15 bioassay (Promega, cat.# JA2015) (mouse cell line); assay: cell-based or functional assay
[2] = target: T1, IL-15 receptor on the IL-15 cells of …; assay: cell-based or functional assay; remark: listed apart in the source

B1: mPD-L1-v1a-218-NHO1-PF51 (2:2) (other)
light: QSALTQPASVSGSPGQSITISCTGTSSDVGAYNYVSWYQQHPGKAPKLMIYDVSNRPSGVSNRFSGSKSGNTASLTISGLQAEDEADYYCSSYTSSSTRVFGTGTKVTVLGQPKANPTVTLFPPSSEELQANKATLVCLISDFYPGAVTVAWKADGSPVKAGVETTKPSKQSNNKYAASSYLSLTPEQWKSHRSYSCQVTHEGSTVEKTVAPTEC
heavy: EVQLLESGGGLVQPGGSLRLSCAASGFTFSAYRMFWVRQAPGKGLEWVSSIYPSGGITFYADSVKGRFTISRDNSKNTLYLQMNSLRAEDTAIYYCARIKLGTVTTVDYWGQGTLVTVSSASTKGPSVFPLAPSSKSTSGGTAALGCLVKDYFPEPVTVSWNSGALTSGVHTFPAVLQSSGLYSLSSVVTVPSSSLGTQTYICNVNHKPSNTKVDKRV[human IgG1 Fc cut from this listing]
chain: MSYRGGGGSGGGGSRASRANGS[about 120 residues cut from this listing]
modifications: N-terminal serine oxidised with NaIO4 and converted to a nitrone (NHO1), joined by SPANC to BCN-PEG2-BCN linker 218; Fc N-glycan trimmed to core GlcNAc(Fuc) and extended with 6-N3-GalNAc; azide clicked to BCN linker 218 that carries the cytokine
[1]
  EC50 (pM), IL-15 bioassay (STAT-5 reporter luminescence): 14.9 pM
  Fold induction, IL-15 bioassay: 2.5 fold

B2: mPD-L1-v1a-218-NHO2-PF54 (2:2) (other)
light: QSALTQPASVSGSPGQSITISCTGTSSDVGAYNYVSWYQQHPGKAPKLMIYDVSNRPSGVSNRFSGSKSGNTASLTISGLQAEDEADYYCSSYTSSSTRVFGTGTKVTVLGQPKANPTVTLFPPSSEELQANKATLVCLISDFYPGAVTVAWKADGSPVKAGVETTKPSKQSNNKYAASSYLSLTPEQWKSHRSYSCQVTHEGSTVEKTVAPTEC
heavy: EVQLLESGGGLVQPGGSLRLSCAASGFTFSAYRMFWVRQAPGKGLEWVSSIYPSGGITFYADSVKGRFTISRDNSKNTLYLQMNSLRAEDTAIYYCARIKLGTVTTVDYWGQGTLVTVSSASTKGPSVFPLAPSSKSTSGGTAALGCLVKDYFPEPVTVSWNSGALTSGVHTFPAVLQSSGLYSLSSVVTVPSSSLGTQTYICNVNHKPSNTKVDKRV[human IgG1 Fc cut from this listing]
chain: STGGGGSGGGGSGGGGSGGS[about 120 residues cut from this listing]
modifications: N-terminal serine oxidised with NaIO4 and converted to a nitrone (NHO2), joined by SPANC to BCN-PEG2-BCN linker 218; Fc N-glycan trimmed to core GlcNAc(Fuc) and extended with 6-N3-GalNAc; azide clicked to BCN linker 218 that carries the cytokine
[1]
  EC50 (pM), IL-15 bioassay (STAT-5 reporter luminescence): 5.9 pM
  Fold induction, IL-15 bioassay: 1.6 fold

B3: mPD-L1-v1a-218-NHO2-PF52 (2:2) (other)
light: QSALTQPASVSGSPGQSITISCTGTSSDVGAYNYVSWYQQHPGKAPKLMIYDVSNRPSGVSNRFSGSKSGNTASLTISGLQAEDEADYYCSSYTSSSTRVFGTGTKVTVLGQPKANPTVTLFPPSSEELQANKATLVCLISDFYPGAVTVAWKADGSPVKAGVETTKPSKQSNNKYAASSYLSLTPEQWKSHRSYSCQVTHEGSTVEKTVAPTEC
heavy: EVQLLESGGGLVQPGGSLRLSCAASGFTFSAYRMFWVRQAPGKGLEWVSSIYPSGGITFYADSVKGRFTISRDNSKNTLYLQMNSLRAEDTAIYYCARIKLGTVTTVDYWGQGTLVTVSSASTKGPSVFPLAPSSKSTSGGTAALGCLVKDYFPEPVTVSWNSGALTSGVHTFPAVLQSSGLYSLSSVVTVPSSSLGTQTYICNVNHKPSNTKVDKRV[human IgG1 Fc cut from this listing]
chain: STGGGGSGGGGSRASRANGS[about 120 residues cut from this listing]
modifications: N-terminal serine oxidised with NaIO4 and converted to a nitrone (NHO2), joined by SPANC to BCN-PEG2-BCN linker 218; Fc N-glycan trimmed to core GlcNAc(Fuc) and extended with 6-N3-GalNAc; azide clicked to BCN linker 218 that carries the cytokine
[2]
  EC50, IL-15 bioassay (STAT-5 reporter luminescence): 0.0114 nM
  Fold induction, IL-15 bioassay: 1.5 fold
[1]
  EC50 (pM), IL-15 bioassay (STAT-5 reporter luminescence): 8.1 pM
  Fold induction, IL-15 bioassay: 2.1 fold

B4: mPD-L1-v1a-145-NHO2-PF52 (2:1) (other)
light: QSALTQPASVSGSPGQSITISCTGTSSDVGAYNYVSWYQQHPGKAPKLMIYDVSNRPSGVSNRFSGSKSGNTASLTISGLQAEDEADYYCSSYTSSSTRVFGTGTKVTVLGQPKANPTVTLFPPSSEELQANKATLVCLISDFYPGAVTVAWKADGSPVKAGVETTKPSKQSNNKYAASSYLSLTPEQWKSHRSYSCQVTHEGSTVEKTVAPTEC
heavy: EVQLLESGGGLVQPGGSLRLSCAASGFTFSAYRMFWVRQAPGKGLEWVSSIYPSGGITFYADSVKGRFTISRDNSKNTLYLQMNSLRAEDTAIYYCARIKLGTVTTVDYWGQGTLVTVSSASTKGPSVFPLAPSSKSTSGGTAALGCLVKDYFPEPVTVSWNSGALTSGVHTFPAVLQSSGLYSLSSVVTVPSSSLGTQTYICNVNHKPSNTKVDKRV[human IgG1 Fc cut from this listing]
chain: STGGGGSGGGGSRASRANGS[about 120 residues cut from this listing]
modifications: N-terminal serine oxidised with NaIO4 and converted to a nitrone (NHO2), joined by SPANC to the free BCN of linker 145; Fc N-glycan trimmed and extended with 6-N3-GalNAc; both azides cross-linked intramolecularly by trivalent BCN linker 145
[1]
  EC50 (pM), IL-15 bioassay (STAT-5 reporter luminescence): 12.3 pM
  Fold induction, IL-15 bioassay: 1.6 fold

B5: genetic fusion IC1 (other)
light: QSALTQPASVSGSPGQSITISCTGTSSDVGAYNYVSWYQQHPGKAPKLMIYDVSNRPSGVSNRFSGSKSGNTASLTISGLQAEDEADYYCSSYTSSSTRVFGTGTKVTVLGQPKANPTVTLFPPSSEELQANKATLVCLISDFYPGAVTVAWKADGSPVKAGVETTKPSKQSNNKYAASSYLSLTPEQWKSHRSYSCQVTHEGSTVEKTVAPTEC
heavy: EVQLLESGGGLVQPGGSLRLSCAASGFTFSAYRMFWVRQAPGKGLEWVSSIYPSGGITFYADSVKGRFTISRDNSKNTLYLQMNSLRAEDTAIYYCARIKLGTVTTVDYWGQGTLVTVSSASTKGPSVFPLAPSSKSTSGGTAALGCLVKDYFPEPVTVSWNSGALTSGVHTFPAVLQSSGLYSLSSVVTVPSSSLGTQTYICNVNHKPSNTKVDKRV[human IgG1 Fc with changes cut from this listing]SCPPPMSVEHADIWVKSYSLYSRERYICNSGFKRKAGTSSLTECVLNKATNVAHWTTPSLKCIRDPALVHQRPAPPSGGSGGGGSGGGSGGGGSLQ[about 120 residues cut from this listing]
[1]
  Fold induction, IL-15 bioassay: 1 fold

B6: mPD-L1-v1a-218-NHO2-PF56 (2:2) (other)
light: QSALTQPASVSGSPGQSITISCTGTSSDVGAYNYVSWYQQHPGKAPKLMIYDVSNRPSGVSNRFSGSKSGNTASLTISGLQAEDEADYYCSSYTSSSTRVFGTGTKVTVLGQPKANPTVTLFPPSSEELQANKATLVCLISDFYPGAVTVAWKADGSPVKAGVETTKPSKQSNNKYAASSYLSLTPEQWKSHRSYSCQVTHEGSTVEKTVAPTEC
heavy: EVQLLESGGGLVQPGGSLRLSCAASGFTFSAYRMFWVRQAPGKGLEWVSSIYPSGGITFYADSVKGRFTISRDNSKNTLYLQMNSLRAEDTAIYYCARIKLGTVTTVDYWGQGTLVTVSSASTKGPSVFPLAPSSKSTSGGTAALGCLVKDYFPEPVTVSWNSGALTSGVHTFPAVLQSSGLYSLSSVVTVPSSSLGTQTYICNVNHKPSNTKVDKRV[human IgG1 Fc cut from this listing]
chain: MSTGGGGSGGGGSRASRANGS[about 120 residues cut from this listing]
modifications: N-terminal serine oxidised with NaIO4 and converted to a nitrone (NHO2), joined by SPANC to BCN-PEG2-BCN linker 218; Fc N-glycan trimmed to core GlcNAc(Fuc) and extended with 6-N3-GalNAc; azide clicked to BCN linker 218 that carries the cytokine
[2]
  Fold induction, IL-15 bioassay: 1.5 fold
